Measured values taken from publication PMC9671922, “TOPOVIBL-REC114 interaction regulates meiotic DNA double-strand breaks” (Nature Communications, 2022).
Results are given in words; binding and its absence hold for the method and conditions named. Some results given as binding are weak or reduced against the parent protein; the word gives no strength. Tags and fused reporters may be left off the sequences shown.

B1: 6xHis-TOPOVIBL C-terminal domain (CTD; 452–579) (domain or fragment, mouse, UniProt J3QMY9 452-579, looked up)
chain: SCDTEQHLTPEKNISAQNTKDQHKNIAQEFPEESIGQAENKRPKRGSPNHGREESRVLGSARDRSPPKSATRDRELTEVSLTARGSQTQAAHGRAQAAEAASPAGGLEDLWLQEVSNLSEWLNPGHRS
notes: Cloned in pProEXHTb; also called TOPOVIBL CTD; source: E. coli BL21Gold (DE3), purified (Ni-Chelating Sepharose, Superdex 200)
B2: 6xHis-SUMO-TOPOVIBL^1–385 (domain or fragment, UniProt J3QMY9 1-385)
chain: MERTALAVCEILRYLIIHWKCEAGTAKGTLLDGQLVISIEALRSKHLPDSLHCIITIASTRSVYGGLNFKKFLQEIQPALPRLSAKLALASEEGGRSQDASGIAPCQVTFEVDENSQSLMTDCLVIKHFLRKIIIVHHKLKFSFSVAVNGTLSAETFGAENEPTLRLDNGVTLVVGFQRYVSKPKLNWSEAHCSRIHPVLGHPAPLFIPDAKADTGLLGELTLTPAAALCPSPKGFSSQLCRISSVSIFLYGPLGLPLLSSDQDQPSTAVFRDTSYFIDWKKYNLFMVPNLDLNLDTQSVLPDVNYKAESPEGNQSQNMNAQGPALLLFLFVDFQSDVPVQQAKIWGLHTLLTAHLSAILSESRSTVQQSIQSAVDQVWQLYHHD

Columns and labels:
[1] = biological target: T1, Strep-REC114-MEI4^1–127 complex (mouse) (UniProt Q9CWH4+Q8BRM6); test: SEC; Superose 6 gel filtration of Strep-REC114-MEI4 1-127, TOPOVIBL 452-579 and their complex; both purified
T1 sequence 1: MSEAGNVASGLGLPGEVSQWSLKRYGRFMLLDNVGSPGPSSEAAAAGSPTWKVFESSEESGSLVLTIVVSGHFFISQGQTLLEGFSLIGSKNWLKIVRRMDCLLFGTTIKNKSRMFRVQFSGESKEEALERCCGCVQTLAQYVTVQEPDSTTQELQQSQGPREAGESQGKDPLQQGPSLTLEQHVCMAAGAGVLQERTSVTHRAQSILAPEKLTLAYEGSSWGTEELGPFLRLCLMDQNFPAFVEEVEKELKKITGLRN
T1 sequence 2: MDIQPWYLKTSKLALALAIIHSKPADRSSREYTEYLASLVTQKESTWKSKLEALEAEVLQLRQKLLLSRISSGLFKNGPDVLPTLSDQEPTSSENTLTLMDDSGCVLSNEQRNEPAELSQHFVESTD

[2] = biological target: T2, Strep-REC114^1–159 (mouse) (UniProt Q9CWH4); test: condition: only REC114 1-159 previously bound to His-MBP-ANKRD31 1808-1857; pull-down; Strep-REC114 1-159, free or previously bound to His-MBP-ANKRD31 1808-1857, on Strep-Tactin XT resin with increasing amounts (1x, 2x, 4x) of His-TOPOVIBL 452-579; wash 100 mM Tris pH 8, 100 mM NaCl, 5 mM β-mercaptoethanol; elution with 50 mM D-biotin; both purified
T2 sequence: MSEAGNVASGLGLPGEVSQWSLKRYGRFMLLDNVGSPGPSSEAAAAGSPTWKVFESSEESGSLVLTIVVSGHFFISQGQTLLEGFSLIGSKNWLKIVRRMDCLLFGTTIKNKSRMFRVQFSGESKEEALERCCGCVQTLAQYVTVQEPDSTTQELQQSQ

[3] = biological target: T2, Strep-REC114^1–159 (mouse); test: condition: only REC114 pre-saturated with ANKRD31 1808-1857; ITC; 25 °C; TOPOVIBL 452-579 injected into REC114 in the absence or presence of saturating amounts of ANKRD31 1808-1857; 20 mM Tris pH 8.0, 100 mM NaCl, 5% glycerol, 5 mM β-mercaptoethanol; both purified
[4] = biological target: T3, Strep-tagged full-length REC114 (mouse) (UniProt Q9CWH4); test: pull-down; Strep-tagged REC114 held on Strep-Tactin XT resin; wash 100 mM Tris pH 8, 100 mM NaCl, 5 mM β-mercaptoethanol; elution with 50 mM D-biotin; SDS-PAGE, coomassie; both purified
T3 sequence: T1 sequence 1

Binder	binding [1]	binding [2]	binding [3]	binding [4]
B1	binds	no binding	no binding	
B2				no binding
